Here are results for 172 sequences from PMC10668032.

The list shows a part of the results. At the low end of the ranking, values are background and their order means little.

This assay deals with SIX1 homeodomain (reference allele) (UniProt Q15475). The assay can be described thus: universal protein binding microarray. The following applies: Universal all-10-mer PBM (8x60K, AMADID 030236), 300 nM GST-tagged protein, Alexa Fluor 488 anti-GST; buffer, salt, pH and temperature not stated; high values mean tight binding; most listed sequences are background and not binding sites; double strand, one strand shown.
Take CGCCATGA: the binding signal was -0.0245 E-score.
As for AACGTACG, the binding signal is -0.332 E-score.
As for CAAACCAA, the figure is -0.129 E-score; as for CCTTATTC, -0.15 E-score.
For the sequence CTTAGCGA, the binding signal is -0.0823 E-score.
In the case of AACGATAA, the binding signal was -0.103 E-score.
Take CACCTGGA: the binding signal came to 0.0132 E-score.
For CCGGGTCG, the binding signal was 0.181 E-score.
GGTTTTAA: the binding signal turned out to be 0.0244 E-score.
For AGCATGAG the value was 0.0375 E-score; for ATCGTGCA, 0.16 E-score; for ATAGACAT, 0.039 E-score.
For the sequence TCAAACCA, the binding signal turned out to be 0.0903 E-score.
In the case of GGCGCATA, the binding signal was -0.022 E-score.
As for AAGGCACG, the binding signal is -0.134 E-score.
Take ACTTTACA: the binding signal is -0.0661 E-score.
With AGGTCGTG, the binding signal was 0.0323 E-score.
CCCTCATC: the binding signal was determined as 0.176 E-score.
Regarding CTAGATAC, the binding signal was found to be 0.349 E-score.
As for AATTGAGT, the figure is -0.0887 E-score; as for AGAGTCTG, -0.18 E-score; as for TGGGTACA, 0.12 E-score.
Take ATAGGATG: the binding signal came to 0.211 E-score.
AGACTTGC: the binding signal is -0.0704 E-score.
As for CACCGCAC, the figure is 0.148 E-score.
GACCCACC: the binding signal was -0.233 E-score.
With ACGGTGAG, the binding signal was -0.00796 E-score.
On to TAATCAGA, for which the binding signal is 0.148 E-score.
For CGTTACAG, the binding signal was -0.15 E-score.
For the sequence CTTTAAGA, the binding signal turned out to be 0.0747 E-score.
With CGCCAGGC, the binding signal is -0.0956 E-score.
Regarding ACTCACGG, the binding signal was -0.0937 E-score.
Turning to GAGGCCCA, the binding signal was -0.401 E-score.
CCGGGTCC: the binding signal was -0.0319 E-score.
AATAATCG: the binding signal came out at 0.0679 E-score.
For CTTTTACC the value was -0.207 E-score; for GTTCAGGA, 0.141 E-score.
As to CGCATAGA, the binding signal worked out at 0.0481 E-score.
Regarding ACTAAGTA, the binding signal is -0.141 E-score.
On to TCGCAGAA, for which the binding signal was -0.208 E-score.
As to AAGTGTTA, the binding signal was -0.127 E-score.
On to CTACCGGC, for which the binding signal was -0.154 E-score.
As for CTGGTCCC, the binding signal was -0.121 E-score.
As for CTAACGAC, the figure is -0.313 E-score; as for AGGCTGAA, -0.296 E-score.
For the sequence GGCCTTGA, the binding signal was -0.145 E-score.
As to ACCCAGCA, the binding signal was -0.0349 E-score.
As for AGAAACAG, the figure is -0.265 E-score; as for TCCGCCGA, 0.252 E-score; as for ACAACCAC, -0.212 E-score.
As to ATCGCCCC, the binding signal stood at 0.253 E-score.
With GCACGTAC, the binding signal is -0.0659 E-score.
For CGATCGGA the value was 0.24 E-score.
In the case of ATTCAGAA, the binding signal is -0.157 E-score.
For GTCCGTTA the value was -0.151 E-score; for TACCGACA, 0.134 E-score; for AGTCCTAC, 0.047 E-score.
As for ACTAATTA, the figure is -0.0562 E-score; as for AGTAGTGC, -0.0785 E-score; as for GCACAACA, -0.124 E-score.
As for ATTATCAG, the figure is 0.168 E-score.
On to GAGAACGC, for which the binding signal is -0.119 E-score.
As to CACCATCC, the binding signal stood at 0.195 E-score.
For the sequence CGAATACC, the binding signal is 0.233 E-score.
Regarding ATAAAGCC, the binding signal is -0.108 E-score.
On to TACCTATA, for which the binding signal was 0.289 E-score.
Take GATAAGAC: the binding signal was found to be 0.0372 E-score.
For the sequence GTGCTTAA, the binding signal is -0.233 E-score.
Turning to ATAGCAAA, the binding signal was -0.0457 E-score.
Take GCATCAGC: the binding signal was -0.0428 E-score.
For GCCAATTA the value was -0.158 E-score; for CACATACC, 0.135 E-score; for AAATAAAG, -0.0783 E-score.
For CAACTTGA, the binding signal is -0.0589 E-score.
Turning to CGTCTGCC, the binding signal turned out to be 0.051 E-score.
As for GAGTTCCC, the figure is -0.249 E-score; as for TAAAACTA, 0.0743 E-score.
In the case of GGCTTCAC, the binding signal was -0.0619 E-score.
As to CCTGGCTC, the binding signal amounted to 0.0769 E-score.
As for GGTATTTA, the binding signal stood at 0.191 E-score.
For GCTAATAC the value was 0.244 E-score; for ACGGTATG, 0.157 E-score.
As to AAGCTCGT, the binding signal was -0.199 E-score.
Consider CATCCCCG, for which the binding signal is 0.145 E-score.
In the case of CTGGCACC, the binding signal was 0.0202 E-score.
Turning to GGCAGGAA, the binding signal was -0.232 E-score.
For the sequence ATATATCG, the binding signal was determined as 0.372 E-score.
CGATTCTC: the binding signal is 0.0404 E-score.
In the case of TATGACGA, the binding signal is -0.0657 E-score.
On to AATGTATC, for which the binding signal turned out to be 0.363 E-score.
In the case of CTAATGTC, the binding signal is -0.0984 E-score.
As for ATCTTCGC, the binding signal is 0.14 E-score.
Take AGACATGA: the binding signal turned out to be 0.173 E-score.
As for GCATAGCC, the figure is -0.106 E-score; as for AGTCGGTA, 0.00167 E-score.
Take AGGCGGGG: the binding signal was 0.157 E-score.
Turning to AAGTTCGA, the binding signal was -0.184 E-score.
With CTCGCTAA, the binding signal worked out at 0.111 E-score.
AAGATTGT: the binding signal was -0.142 E-score.
As to ATCTAATC, the binding signal is 0.255 E-score.
AGAGCCGC: the binding signal is -0.236 E-score.
In the case of CAAGTACC, the binding signal is -0.00547 E-score.
With AGGGCAGC, the binding signal is -0.0735 E-score.
With CAGCAGCC, the binding signal was -0.206 E-score.
CTCCTAGA: the binding signal was found to be 0.112 E-score.
On to AGAAACAC, for which the binding signal is -0.00396 E-score.
Consider CATCGACC, for which the binding signal is -0.047 E-score.
For GGGTATAA the value was 0.375 E-score; for CCGGTGCC, -0.113 E-score.
For the sequence AAAAAACC, the binding signal was -0.123 E-score.
On to ATAGCAAC, for which the binding signal is -0.00144 E-score.
Take CCCTTGCG: the binding signal was -0.182 E-score.
For AGCGCGGA the value was 0.0543 E-score; for ATTTCAGA, -0.106 E-score.
For CTCACGCC the value was 0.0894 E-score.
With AATATAAG, the binding signal turned out to be 0.15 E-score.
Regarding CCACCTGA, the binding signal was 0.0787 E-score.
For GATTTCAA, the binding signal was -0.157 E-score.
Turning to AACAACTC, the binding signal was -0.193 E-score.
As for CCCGAGGC, the binding signal was -0.00664 E-score.
For CCATTCGC the value was -0.18 E-score; for AACACGAA, 0.0695 E-score; for AGTTTAAT, -0.0927 E-score.
With CTAAGCAC, the binding signal was -0.00322 E-score.
Take CACACGGC: the binding signal is -0.199 E-score.
As for AAATGGTA, the binding signal was -0.0836 E-score.
Turning to AAAGATTG, the binding signal was -0.231 E-score.
Regarding GAGACAAC, the binding signal came to 0.0738 E-score.
For TAACGGCA the value was -0.242 E-score; for CTGCTTGA, 0.0764 E-score.
For the sequence ATTCACAC, the binding signal was determined as 0.0491 E-score.
In the case of ACCTCAAT, the binding signal is -0.123 E-score.
Turning to AGAACTAT, the binding signal was 0.0937 E-score.
AATTACGC: the binding signal was -0.176 E-score.
As for ACGCTTGA, the figure is -0.0476 E-score.
Turning to AACTTATA, the binding signal was 0.0614 E-score.
As for CCAATGGG, the figure is -0.0962 E-score; as for ATGCTTGC, -0.0173 E-score; as for CTCTAACC, -0.201 E-score.
As to CATCTATC, the binding signal stood at 0.211 E-score.
Take CTGGCCAG: the binding signal is -0.219 E-score.
As to ATCGATGC, the binding signal is 0.0823 E-score.
Consider TCAGTTAA, for which the binding signal was -0.0668 E-score.
On to CCTATATC, for which the binding signal was 0.352 E-score.
For ACAGTCGT the value was -0.0838 E-score.
As for CTGTTCAC, the binding signal is -0.146 E-score.
On to CGGACGCC, for which the binding signal was -0.241 E-score.
As to ATTTTCAG, the binding signal is -0.155 E-score.
For GATTTCGA the value was -0.278 E-score; for CACGCCAC, -0.121 E-score; for TCATAAAA, -0.0712 E-score.
GAGCGAAA: the binding signal was -0.139 E-score.
As for CCTCGTAC, the figure is 0.089 E-score; as for ACGACAAA, -0.184 E-score.
Consider GATATCTA, for which the binding signal was 0.392 E-score.
Consider GATGACAA, for which the binding signal was -0.0562 E-score.
As to CTCACTCA, the binding signal is -0.0219 E-score.
As for TACGCCAA, the figure is -0.105 E-score; as for ATAACTAG, 0.097 E-score; as for CCGGCCAA, -0.11 E-score.
Take GTCCGCTA: the binding signal is -0.0284 E-score.
As for TCACAAAA, the figure is -0.13 E-score; as for GCCGTTAC, -0.167 E-score.
Regarding GCCGTTCA, the binding signal is -0.171 E-score.
For the sequence CGCTCTGC, the binding signal is -0.131 E-score.
For ATACGAAT the value was 0.182 E-score; for CTGGTCAC, -0.191 E-score.
With ACAGGGTA, the binding signal was determined as 0.267 E-score.
Consider CCTCAAAG, for which the binding signal is -0.0687 E-score.
Consider GAGGTCGC, for which the binding signal is -0.156 E-score.
Regarding AGCGCGTG, the binding signal was -0.263 E-score.
For TGAGCCCA the value was 0.0713 E-score.
